ChEMBL document CHEMBL1201862, “PubChem BioAssay data set” (2004)

Each molecule was assayed on NCI-H322M (assay: NCI tumour cell line growth inhibition, 48 h).
For CCC1c2[nH]c3ccccc3c2C[C@H]2C(=O)NC(C)C(=O)N12 (stereo not given in full), the GI50 was inactive: > 100 µM. For Cc1cc2c(cc1C)NC1=C(O)C(c3c[nH]c4ccc(COc5ccccc5)cc34)OC1=N2 (stereo not given), the GI50 was inactive: > 100 µM. With Fc1ccc(C(OCCN2CCC3CCC(C2)N3CCCc2ccccc2)c2ccc(F)cc2)cc1 (stereo not given) the GI50 was inactive: 10.4 µM. For Oc1c(CN2CCN(c3ccccc3)CC2)cc(Br)c2cccnc12, the GI50 was inactive: 1.85 µM. With CC(O)c1cc2c(s1)C(=O)c1ccsc1C2=O (stereo not given) the GI50 was active: 0.265 µM. For c1ccc2c[n+](CCCCCCCCCC[n+]3ccc4ccccc4c3)ccc2c1, the GI50 was inactive: > 10 µM. In the case of O=C1C(=C(I)I)c2ccccc2-c2ccccc21, the GI50 is reported as inactive: 12.3 µM. CN(C)CCn1c(=O)c2ccc(NCCCN(C)CCCNc3ccc4c(=O)n(CCN(C)C)c(=O)n5c6ccc(O)cc6c(=O)c3c45)c3c(=O)c4cc(O)ccc4n(c1=O)c23 was tested, and the GI50 was active: < 0.01 µM. In the case of COc1ccc(C(c2ccc(C(C)C)cc(=O)c2O)c2c(O)cc3oc(-c4ccccc4)cc(=O)c3c2O)cc1 (stereo not given), the GI50 is reported as inactive: 18.4 µM. For COc1ccc(CN2CCC/C=C/CC(Cl)(Cl)C2=O)cc1, the GI50 was inactive: 43.9 µM. CN1CCCc2nc3ccccc3n2C1 was tested, and the GI50 was inactive: > 100 µM. CCOC(=O)C1=C(N2CCCC2)NC(=O)CC1=O was tested, and the GI50 was inactive: > 100 µM. For O=C1CCN2C(=Nc3cccc4cccc2c34)N1, the GI50 was inactive: > 100 µM. With Oc1ccc(C(=C(Br)c2ccccc2)c2ccc(O)cc2)cc1 the GI50 was inactive: 7.73 µM. For COc1cc(OC)cc(-n2c(N)c(C#N)c3ccc([N+](=O)[O-])cc3c2=O)c1, the GI50 was inactive: 27.1 µM. COC(=O)c1sc(C(=O)OC)c2c1C[S+]([O-])C2 was tested, and the GI50 was inactive: > 100 µM. In the case of COC(=O)N1N=C(c2ccccc2)C1c1ccccc1 (stereo not given), the GI50 is reported as inactive: > 100 µM. With CCCCCC(=O)OC[n+]1ccc(-c2c(COC(=O)NC(C)C)c(COC(=O)NC(C)C)c3n2CCC3)cc1 the GI50 was inactive: > 100 µM. In the case of O=C(CC(Cc1ccccc1)c1ccc(Oc2ccccc2)cc1)Nc1cccc(Cl)c1 (stereo not given), the GI50 is reported as inactive: 7.85 µM. For C=CCSc1nnc2cc(CN3CCCC3)c(-c3ccc(Cl)cc3)nn12, the GI50 was inactive: 15.3 µM. With CCCNC(=S)N/C=C1/C(=O)C=C(C)OC1=O the GI50 was inactive: > 100 µM. With Cc1cccc(C)c1NC(=O)C(=O)C(C#N)c1ccccc1 (stereo not given) the GI50 was inactive: > 100 µM. With Cc1cc(-n2c(/C=C/c3ccc(Cl)cc3)nc3cc(Cl)ccc3c2=O)on1 the GI50 was inactive: 10.8 µM. For COc1ccc2c(c1)OC[C@@H]1c3cc4c(cc3O[C@H]21)OCO4, the GI50 was inactive: > 100 µM. With Brc1nc2c3ccccc3ncn2c1Br the GI50 was inactive: 54.8 µM. With CC(=O)Oc1ccc(CO)cc1OC(C)=O the GI50 was inactive: > 100 µM. CC(C)/C(Cl)=N\OC(=O)Nc1ccc(F)cc1 was tested, and the GI50 was inactive: 11.9 µM. COC1CC(OC)C2OC(c3ccccc3)OCC2O1 (stereo not given) was tested, and the GI50 was inactive: > 100 µM. For COC(=O)C1C(O)C(C(=O)OC)C(C)N(C)C1C (stereo not given), the GI50 was inactive: > 100 µM. For NC(=O)CC1OC(=O)Cc2cc3c(c(O)c21)C(=O)c1c(O)cccc1C3=O (stereo not given), the GI50 was inactive: > 100 µM. For O=C(O)c1ccccc1CC1Cc2ccccc2C1=O (stereo not given), the GI50 was inactive: > 100 µM. With O=C(CNC(=O)OCc1ccccc1)NCCCCC(NC(=O)OCc1ccccc1)C(=O)O (stereo not given) the GI50 was inactive: > 100 µM. With CC1=CC(O)(c2ccccc2)C(N2CCOCC2)N1O (stereo not given) the GI50 was inactive: > 100 µM. For COC(=O)C1=C(SC)SC2(C(=O)OC)C3C=C(C)C4C(N13)C42C(=O)OC (stereo not given), the GI50 was inactive: > 100 µM. In the case of Cc1cc(NS(=O)(=O)c2ccc(NC(=O)COC(=O)c3cccc4c(=O)c5ccccc5[nH]c34)cc2)no1, the GI50 is reported as inactive: > 100 µM. For Nc1ccc(S(=O)(=O)Nc2nc3ccccc3nc2N2CCCCC2)cc1, the GI50 was inactive: > 100 µM. In the case of C[C@@H](O)CCC(=O)c1ccoc1, the GI50 is reported as inactive: > 75.7 µM. For CC(C)c1cccc(C(C)C)c1NC(=O)C(=O)C(C(=O)c1ccc2ccccc2c1)C1OC(=O)c2ccccc21 (stereo not given), the GI50 was inactive: > 100 µM. With C[C@H](CCC1=NCCN1)[C@H]1CC[C@H]2[C@@H]3CC[C@@H]4C[C@H](O)CC[C@]4(C)[C@H]3C[C@H](O)[C@]12C the GI50 was inactive: 15.2 µM. CC(C)=CCC/C(C)=C/CC/C(C)=C/CC/C(C=O)=C/CC/C(C)=C\CC/C(C)=C/CC/C(C)=C/CC/C(C)=C/CC1=CC(=O)C=CC1=O was tested, and the GI50 was inactive: > 100 µM. In the case of COc1ccc(/C(Cl)=C(\C=O)c2ccc(Cl)cc2)cc1OC, the GI50 is reported as inactive: 5.56 µM. In the case of O=C1CSC(c2ccccc2O)N1c1ccc(-c2ccc(-n3c(-c4ccccc4)nc4ccccc4c3=O)cc2)cc1 (stereo not given), the GI50 is reported as inactive: 22.7 µM. CC1CC(N)=Nc2ccccc2N1 (stereo not given) was tested, and the GI50 was inactive: > 100 µM. In the case of Cc1ccc2c(c1C)CC1(Cc3ccc(C)c(C)c3C1=O)C2=O (stereo not given), the GI50 is reported as inactive: 19.5 µM. For C/C(Cc1ccc2c(c1)OCO2)=N\NC(=O)C(C)Sc1nnc(SC(C)C(=O)N/N=C(\C)Cc2ccc3c(c2)OCO3)s1 (stereo not given), the GI50 was inactive: > 100 µM. CC(=O)NC1C(OCc2ccccc2)OC(CO)C(O)C1OCC(=O)NC(C(=O)NC(CCC(=O)NCCCCCC(=O)Nc1ccc2c(c1)CN1C(=O)c3ccccc3C1=N2)C(N)=O)C(C)C (stereo not given) was tested, and the GI50 was inactive: 12.4 µM. O=C1CCCCCCCCCCC(=O)C2CCOCCOCCOCCC1Cc1cccc(n1)C2 was tested, and the GI50 was inactive: > 100 µM. NC(=O)C(=O)n1ncc(Cl)c(Cl)c1=O was tested, and the GI50 was inactive: 40.6 µM. For COc1ccc(C(=C(I)c2ccccc2)c2ccc(OC)cc2)cc1, the GI50 was inactive: > 100 µM. For COc1c(CC=C(C)C)c(O)c(C(CC(C)C)c2c(O)c3c(c(C(C)=O)c2O)OC(C(C)(C)O)C3)c(O)c1C(C)=O (stereo not given), the GI50 was inactive: 4.43 µM. For COc1cc(/C=C2\C(=O)N(c3ccccc3)C(c3ccccc3)S2(=O)=O)cc(OC)c1OC (stereo not given), the GI50 was inactive: 88.7 µM. For O=CC1OC(=O)c2cc(O)c(O)c(O)c2-c2c(cc(O)c(O)c2O)C(=O)OC1C1OC(=O)c2cc(O)c(O)c(O)c2-c2c(O)c(O)c3oc(=O)c4c(c(O)c(O)c5oc(=O)c2c3c54)-c2c(cc(O)c(O)c2O)C(=O)OCC1O (stereo not given), the GI50 was inactive: 18.7 µM. For COc1cc(/C=C2/SC(c3ccccc3)N(Cc3ccccc3)C2=O)cc(OC)c1OC (stereo not given), the GI50 was inactive: 72.6 µM. In the case of CN1CCc2[nH]c3ccccc3c2C1, the GI50 is reported as inactive: > 100 µM. With C#CC(O)Cc1ccc(OC)c2occc12 (stereo not given) the GI50 was inactive: > 100 µM. With COCN1C(=O)[C@@H]2C[C@@H](OC/C=C/CBr)CN2C(=O)c2ccccc21 the GI50 was inactive: 16.6 µM. With COC(=O)C(C)(Cc1ccc2c(c1)nnn2C(C)=O)NC(C)=O (stereo not given) the GI50 was inactive: > 100 µM. In the case of NC(=O)Cc1nc2c(O)ncnc2n1C1OC(CO)C(O)C1O (stereo not given), the GI50 is reported as inactive: > 100 µM. For C1=C(c2ccccc2)C(N2CCOCC2)Oc2ccccc21 (stereo not given), the GI50 was inactive: 36.6 µM. In the case of Cc1ccc(NC(=O)c2cc(S(=O)(=O)Nc3nc4cccnc4[nH]3)c(SSc3cc(Cl)c(C(=O)Nc4ccc(C)cc4)cc3S(=O)(=O)Nc3nc4cccnc4[nH]3)cc2Cl)cc1, the GI50 is reported as inactive: > 100 µM. With CC(=O)O[C@H]1C(=O)[C@@]2(C)[C@H]([C@H](OC(=O)C3CCCCC3)[C@]3(O)C[C@H](OC(=O)[C@H](O)[C@@H](NC(=O)OC(C)(C)C)c4ccccc4)C(C)=C1C3(C)C)[C@]1(OC(C)=O)CO[C@@H]1C[C@@H]2O the GI50 was active: 0.0151 µM. In the case of CCCCc1ccc(Nc2nc(Cl)c3ncn(C4CC(Oc5ccc(C)cc5)C(COc5ccc(C)cc5)O4)c3n2)cc1 (stereo not given), the GI50 is reported as inactive: > 100 µM. With S=C(N/N=C\C=N/NC(=S)N1CCCCCC1)N1CCCCCC1 the GI50 was inactive: > 70 µM. For O=C(NNC(=S)Nc1ccccc1)c1nsc2ccccc12, the GI50 was inactive: 32.4 µM. CC1=CCS(=O)(=O)C1C(O)C1=C(C)CCCC1(C)C (stereo not given) was tested, and the GI50 was inactive: > 100 µM. With CC1(C)N/C(=C\[N+](=O)[O-])C(C)(C)N1O the GI50 was inactive: > 10 µM. In the case of CC(=O)OCc1cc(OC(C)=O)cnc1COC(C)=O, the GI50 is reported as inactive: > 100 µM. For CC(C(=O)NCNC(=O)c1ccccc1)C(=O)Nc1ccccc1 (stereo not given), the GI50 was inactive: > 100 µM. Nc1cccc(S(=O)(=O)Nc2nnc(S(N)(=O)=O)s2)c1 was tested, and the GI50 was inactive: > 100 µM. C=CC[C@H](C)CCC(=O)N1[C@H]2CC3CC[C@@]2(CS1(=O)=O)C3(C)C was tested, and the GI50 was inactive: > 100 µM. In the case of CC(C)(C)OC(=O)NCCCNC1(c2cc3ccccc3s2)CCCCC1, the GI50 is reported as inactive: 14.3 µM. In the case of NNc1ccccc1Cl, the GI50 is reported as inactive: > 100 µM. In the case of CC(=O)[C@H]1CC[C@@H]2[C@]1(C)CC=C1[C@]23C=C[C@]2(C[C@@H](O)CC[C@]12C)C(C(=O)O)C3C(=O)O (stereo not given in full), the GI50 is reported as inactive: > 100 µM. For Cn1c(=O)c(C(c2ccccc2)c2c(O)c3ccccc3n(C)c2=O)c(O)c2ccccc21, the GI50 was inactive: > 100 µM. For COc1ccc(NC(=S)Nc2c(C)n(C)n(-c3ccccc3)c2=O)cc1, the GI50 was inactive: > 100 µM. COC(=O)c1ccc(/C=C/C2=CC(=O)C=CC2=O)cc1 was tested, and the GI50 was inactive: 44.2 µM. For N#CC(C#N)=C(N)/C(C#N)=C\c1ccnc2ccccc12, the GI50 was inactive: 71 µM. With COC(=O)c1cc(C)n(NC(=O)OC(C)(C)C)c1C the GI50 was inactive: > 100 µM. In the case of CN(C)Cc1cc(/N=N/c2cccc(Cl)c2)ccc1O, the GI50 is reported as inactive: 12.9 µM. In the case of [N-]=[N+]=Nc1c(Br)c(=O)[nH]c(=O)n1COCCO, the GI50 is reported as inactive: > 100 µM. In the case of CC(C)(C)C1=NO[C@H]2[C@@H](NC(=O)c3ccccc3)CC[C@@H]12, the GI50 is reported as inactive: > 100 µM. For NC1=NN(c2ccccc2)C(=O)C1C(=O)C(=O)Nc1cccc(C(F)(F)F)c1 (stereo not given), the GI50 was inactive: > 100 µM. NC(=O)C(=O)CC(=O)c1ccccc1NC1=CC(=O)C(=O)c2ccccc21 was tested, and the GI50 was inactive: > 100 µM. In the case of CCCOc1ccc(/C(Cl)=C(\C=O)c2ccc(OC)c(OC)c2)cc1OCCC, the GI50 is reported as inactive: 5.66 µM. For O=C1c2nc3n(c2C(=O)c2c1nc1n2CCC1)CCC3, the GI50 was inactive: 4.3 µM. CC(C)C(C/C=C1/CC(CO)(COC(=O)c2ccccc2)OC1=O)C(C)C (stereo not given) was tested, and the GI50 was inactive: 14.9 µM. In the case of CC(NNC(=O)c1cc[n+]([BH2-]C#N)cc1)c1ccc(Cl)cc1Cl (stereo not given), the GI50 is reported as inactive: 43.5 µM. With CCOC(=O)C(C)OC(=O)c1ccc(C)cc1 (stereo not given) the GI50 was inactive: > 100 µM. O=C(O)c1cc(-c2ccncc2)nc2ccccc12 was tested, and the GI50 was inactive: > 100 µM. In the case of O=C1Nc2ccccc2/C1=C\c1c(Cl)n(-c2ccccc2)c2ccccc12, the GI50 is reported as inactive: 3.81 µM.

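How tested: cells in 96-well plates exposed to compound for 48 hours at five concentrations. Here, GI50 denotes the concentration required for 50% inhibition of growth.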 Activity calls are given as the source filed them. Rule as the data show it: active = GI50 up to about 1.1 µM and inactive = higher.
